Results reported in PMC9911399, “Two distinct binding modes provide the RNA-binding protein RbFox with extraordinary sequence specificity”.
Residue numbers refer to the chain shown, from its start. Some of the results follow.

T1: RBFOX1 RRM (Homo sapiens, UniProt Q9NWB1 109-208)
T1 sequence: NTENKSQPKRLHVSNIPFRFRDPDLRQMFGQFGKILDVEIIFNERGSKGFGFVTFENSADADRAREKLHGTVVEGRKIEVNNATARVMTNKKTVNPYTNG

B1: CAGCUAA (DNA:RNA)
RNA: GGGAGACCGGAAUUCAGAUUGUCCCAGCUAAUUAAAUCCCGUCGUAGCCACCA
DNA 1: CAATCTGAATTCCGGTCTCCC
DNA 2: TGGTGGCTACGACGGGATT
B2: UGCAAAU (DNA:RNA)
RNA: B1 RNA with C25U, A26G, G27C, C28A, U29A, A31U
DNA 1: CAATCTGAATTCCGGTCTCCC
DNA 2: TGGTGGCTACGACGGGATT
B3: GAUCCGC (DNA:RNA)
RNA: B1 RNA with C25G, G27U, U29C, A30G, A31C
DNA 1: CAATCTGAATTCCGGTCTCCC
DNA 2: TGGTGGCTACGACGGGATT
B4: AUAGCUC (DNA:RNA)
RNA: GGGAGACCGGAAUUCAGAUUGUCCAUAGCUCUUAAAUCCCGUCGUAGCCACCA
DNA 1: CAATCTGAATTCCGGTCTCCC
DNA 2: TGGTGGCTACGACGGGATT
B5: CUAGUCU (DNA:RNA)
RNA: B4 RNA with A25C, C29U, U30C, C31U
DNA 1: CAATCTGAATTCCGGTCTCCC
DNA 2: TGGTGGCTACGACGGGATT
B6: ACCUCUC (DNA:RNA)
RNA: B4 RNA with U26C, A27C, G28U
DNA 1: CAATCTGAATTCCGGTCTCCC
DNA 2: TGGTGGCTACGACGGGATT
B7: GCGACGA (DNA:RNA)
RNA: B1 RNA with C25G, A26C, C28A, U29C, A30G
DNA 1: CAATCTGAATTCCGGTCTCCC
DNA 2: TGGTGGCTACGACGGGATT
B8: ACUGCAC (DNA:RNA)
RNA: B4 RNA with U26C, A27U, U30A
DNA 1: CAATCTGAATTCCGGTCTCCC
DNA 2: TGGTGGCTACGACGGGATT
B9: UCGAGCG (DNA:RNA)
RNA: B1 RNA with C25U, A26C, C28A, U29G, A30C, A31G
DNA 1: CAATCTGAATTCCGGTCTCCC
DNA 2: TGGTGGCTACGACGGGATT
B10: UUACUAC (DNA:RNA)
RNA: B4 RNA with A25U, G28C, C29U, U30A
DNA 1: CAATCTGAATTCCGGTCTCCC
DNA 2: TGGTGGCTACGACGGGATT
B11: AAUGUAC (DNA:RNA)
RNA: B4 RNA with U26A, A27U, C29U, U30A
DNA 1: CAATCTGAATTCCGGTCTCCC
DNA 2: TGGTGGCTACGACGGGATT
B12: GUGGGUA (DNA:RNA)
RNA: B4 RNA with A25G, A27G, C29G, C31A
DNA 1: CAATCTGAATTCCGGTCTCCC
DNA 2: TGGTGGCTACGACGGGATT
B13: AUAUCGA (DNA:RNA)
RNA: B4 RNA with G28U, U30G, C31A
DNA 1: CAATCTGAATTCCGGTCTCCC
DNA 2: TGGTGGCTACGACGGGATT
B14: CGCUACU (DNA:RNA)
RNA: B1 RNA with A26G, G27C, C28U, U29A, A30C, A31U
DNA 1: CAATCTGAATTCCGGTCTCCC
DNA 2: TGGTGGCTACGACGGGATT
B15: AAGCCGU (DNA:RNA)
RNA: B1 RNA with C25A, U29C, A30G, A31U
DNA 1: CAATCTGAATTCCGGTCTCCC
DNA 2: TGGTGGCTACGACGGGATT
B16: UUCUAAC (DNA:RNA)
RNA: B4 RNA with A25U, A27C, G28U, C29A, U30A
DNA 1: CAATCTGAATTCCGGTCTCCC
DNA 2: TGGTGGCTACGACGGGATT
B17: GCUGCUA (DNA:RNA)
RNA: B4 RNA with A25G, U26C, A27U, C31A
DNA 1: CAATCTGAATTCCGGTCTCCC
DNA 2: TGGTGGCTACGACGGGATT
B18: AUCGUCA (DNA:RNA)
RNA: B4 RNA with A27C, C29U, U30C, C31A
DNA 1: CAATCTGAATTCCGGTCTCCC
DNA 2: TGGTGGCTACGACGGGATT
B19: AGAUCGA (DNA:RNA)
RNA: B4 RNA with U26G, G28U, U30G, C31A
DNA 1: CAATCTGAATTCCGGTCTCCC
DNA 2: TGGTGGCTACGACGGGATT
B20: GUAUCGG (DNA:RNA)
RNA: B4 RNA with A25G, G28U, U30G, C31G
DNA 1: CAATCTGAATTCCGGTCTCCC
DNA 2: TGGTGGCTACGACGGGATT
B21: AACGUUC (DNA:RNA)
RNA: B4 RNA with U26A, A27C, C29U
DNA 1: CAATCTGAATTCCGGTCTCCC
DNA 2: TGGTGGCTACGACGGGATT
B22: AUCUCGA (DNA:RNA)
RNA: B4 RNA with A27C, G28U, U30G, C31A
DNA 1: CAATCTGAATTCCGGTCTCCC
DNA 2: TGGTGGCTACGACGGGATT
B23: CAGCAUC (DNA:RNA)
RNA: B1 RNA with U29A, A30U, A31C
DNA 1: CAATCTGAATTCCGGTCTCCC
DNA 2: TGGTGGCTACGACGGGATT
B24: ACGCUGC (DNA:RNA)
RNA: B1 RNA with C25A, A26C, A30G, A31C
DNA 1: CAATCTGAATTCCGGTCTCCC
DNA 2: TGGTGGCTACGACGGGATT
B25: UAGUAGC (DNA:RNA)
RNA: B1 RNA with C25U, C28U, U29A, A30G, A31C
DNA 1: CAATCTGAATTCCGGTCTCCC
DNA 2: TGGTGGCTACGACGGGATT
B26: CGAUUUA (DNA:RNA)
RNA: B1 RNA with A26G, G27A, C28U, A30U
DNA 1: CAATCTGAATTCCGGTCTCCC
DNA 2: TGGTGGCTACGACGGGATT
B27: AUUAAGC (DNA:RNA)
RNA: B4 RNA with A27U, G28A, C29A, U30G
DNA 1: CAATCTGAATTCCGGTCTCCC
DNA 2: TGGTGGCTACGACGGGATT
B28: UAGCACA (DNA:RNA)
RNA: B1 RNA with C25U, U29A, A30C
DNA 1: CAATCTGAATTCCGGTCTCCC
DNA 2: TGGTGGCTACGACGGGATT
B29: GUCACGU (DNA:RNA)
RNA: B4 RNA with A25G, A27C, G28A, U30G, C31U
DNA 1: CAATCTGAATTCCGGTCTCCC
DNA 2: TGGTGGCTACGACGGGATT
B30: UGUAACA (DNA:RNA)
RNA: B1 RNA with C25U, A26G, G27U, C28A, U29A, A30C
DNA 1: CAATCTGAATTCCGGTCTCCC
DNA 2: TGGTGGCTACGACGGGATT
B31: AAACUGG (DNA:RNA)
RNA: B1 RNA with C25A, G27A, A30G, A31G
DNA 1: CAATCTGAATTCCGGTCTCCC
DNA 2: TGGTGGCTACGACGGGATT

Molecular target: T1, RBFOX1 RRM
Test: EMSA; HiTS-Eq, 1 nM pool, 10 min; buffer printed only for the single-RNA assays: 10 mM Tris pH 7.5, 150 mM NaCl, 3.4 mM EDTA, 0.001% NP-40, 30 C
Conditions: tags: His6 N-terminal (pET28a); label: 5' 32P
Outline: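 These values rest on relative association constants, computed from read-count changes of each RNA species versus the control reaction and normalised to the cognate motif. Reads came from free RNA recovered by 8% native PAGE after purified RbFox RRM (wild type or mutant) at increasing concentrations was equilibrated for 10 min in 50 µL with 1 nM of a 5′-radiolabelled pool with 7 randomized nucleotides and DNA-annealed flanks.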

Row | Binder | binding signal
1 | B1 | 0.00179 KA relative to UGCAUGU
2 | B2 | 0.00953 KA relative to UGCAUGU
3 | B3 | 0.0132 KA relative to UGCAUGU
4 | B4 | 0.00406 KA relative to UGCAUGU
5 | B5 | 0.00711 KA relative to UGCAUGU
6 | B6 | 0.000784 KA relative to UGCAUGU
7 | B7 | 0.0141 KA relative to UGCAUGU
8 | B8 | 0.00599 KA relative to UGCAUGU
9 | B9 | 0.0144 KA relative to UGCAUGU
10 | B10 | 0.00404 KA relative to UGCAUGU
11 | B11 | 0.00459 KA relative to UGCAUGU
12 | B12 | 0.0204 KA relative to UGCAUGU
13 | B13 | 0.0043 KA relative to UGCAUGU
14 | B14 | 0.00873 KA relative to UGCAUGU
15 | B15 | 0.00255 KA relative to UGCAUGU
16 | B16 | 0.00535 KA relative to UGCAUGU

Row | Binder | binding signal
17 | B17 | 0.0167 KA relative to UGCAUGU
18 | B18 | 0.00413 KA relative to UGCAUGU
19 | B19 | 0.013 KA relative to UGCAUGU
20 | B20 | 0.00781 KA relative to UGCAUGU
21 | B21 | 0.00687 KA relative to UGCAUGU
22 | B22 | 0.0108 KA relative to UGCAUGU
23 | B23 | 0.0124 KA relative to UGCAUGU
24 | B24 | 0.0121 KA relative to UGCAUGU
25 | B25 | 0.0177 KA relative to UGCAUGU
26 | B26 | 0.00619 KA relative to UGCAUGU
27 | B27 | 0.00381 KA relative to UGCAUGU
28 | B28 | 0.00585 KA relative to UGCAUGU
29 | B29 | 0.00913 KA relative to UGCAUGU
30 | B30 | 0.00979 KA relative to UGCAUGU
31 | B31 | 0.0079 KA relative to UGCAUGU
